The list shows a part of the results. Single values are uncertain, as repeats are few or missing.

Holding throughout (assay): cell count relative to DMSO control; melanoma cells; higher = more viable cells
Holding throughout (details): library dose: standard library concentration; 72 h

Assay [1] deals with A101D.
The test system of assay [2] is A2058.
In assay [3] the test system is A375.
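Further: cells treated in 1,536-well plates, then fixed and DAPI-stained, with nuclei counted from automated high-throughput microscope images.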

Take `CC[C@]1(O)C[C@H]2CN(CCc3c([nH]c4ccccc34)[C@@](C(=O)OC)(c3cc4c(cc3OC)N(C=O)[C@H]3[C@@](O)(C(=O)OC)[C@H](OC(C)=O)[C@]5(CC)C=CCN6CC[C@]43[C@@H]65)C2)C1` [vincristine] + CCN(CC)CCNC(=O)c1c(C)[nH]c(/C=C2\C(=O)Nc3ccc(F)cc32)c1C [sunitinib] (first compound 0.0005 µM, partner dose 2 µM): the cell count in assay [1] is 56.9%; in assay [2], 69.1%; in assay [3], 92.7%.

For the compound `Cc1cc(Nc2cc(N3CCN(C)CC3)nc(Sc3ccc(NC(=O)C4CC4)cc3)n2)n[nH]1` [Tozasertib] + C#Cc1cccc(Nc2ncnc3cc(OCCOC)c(OCCOC)cc23)c1 [erlotinib] (first compound 0.03 µM, partner dose 4 µM), the cell count in assay [1] was determined as 73.7%; in assay [2], 83.9%; in assay [3], 95.7%.

As for `Cc1cc(Nc2cc(N3CCN(C)CC3)nc(Sc3ccc(NC(=O)C4CC4)cc3)n2)n[nH]1` [Tozasertib] + CO[C@@H]1[C@H](N(C)C(=O)c2ccccc2)C[C@H]2O[C@]1(C)n1c3ccccc3c3c4c(c5c6ccccc6n2c5c31)C(=O)NC4 [Midostaurin] (first compound 0.03 µM, partner dose 0.4 µM), the cell count in assay [1] stood at 67.5%; in assay [2], 28.5%; in assay [3], 64%.

Take `CC[C@]1(O)C[C@H]2CN(CCc3c([nH]c4ccccc34)[C@@](C(=O)OC)(c3cc4c(cc3OC)N(C=O)[C@H]3[C@@](O)(C(=O)OC)[C@H](OC(C)=O)[C@]5(CC)C=CCN6CC[C@]43[C@@H]65)C2)C1` [vincristine] + Cn1c(Nc2ccc(C(F)(F)F)cc2)nc2cc(Oc3ccnc(-c4ncc(C(F)(F)F)[nH]4)c3)ccc21 [CHIR265] (first compound 0.0005 µM, partner dose 0.4 µM): the cell count in assay [1] is 50%; in assay [2] it was 33.4%; in assay [3], 81.8%.

Turning to `CC[C@]1(O)C[C@H]2CN(CCc3c([nH]c4ccccc34)[C@@](C(=O)OC)(c3cc4c(cc3OC)N(C=O)[C@H]3[C@@](O)(C(=O)OC)[C@H](OC(C)=O)[C@]5(CC)C=CCN6CC[C@]43[C@@H]65)C2)C1` [vincristine] + NCC(=O)Nc1ccc(-n2nc(C(F)(F)F)cc2-c2ccc3c(ccc4ccccc43)c2)cc1 [OSU03012] (first compound 0.0005 µM, partner dose 5 µM), the cell count in assay [1] is 88.8%; in assay [2], 98.4%; in assay [3], 58.5%.

With `Cc1cc(Nc2cc(N3CCN(C)CC3)nc(Sc3ccc(NC(=O)C4CC4)cc3)n2)n[nH]1` [Tozasertib] + CNC(=O)c1cc(Oc2ccc(NC(=O)Nc3ccc(Cl)c(C(F)(F)F)c3)cc2)ccn1 [sorafenib] (first compound 0.03 µM, partner dose 2 µM), the cell count in assay [1] was 86.2%; in assay [2], 96.1%; in assay [3], 122%.

Turning to `Cc1cc(Nc2cc(N3CCN(C)CC3)nc(Sc3ccc(NC(=O)C4CC4)cc3)n2)n[nH]1` [Tozasertib] + Cn1c(Nc2ccc(C(F)(F)F)cc2)nc2cc(Oc3ccnc(-c4ncc(C(F)(F)F)[nH]4)c3)ccc21 [CHIR265] (first compound 0.03 µM, partner dose 0.4 µM), the cell count came out at 62.4% in assay [1], 40.5% in assay [2] and 66.2% in assay [3].

Take `Cc1cc(Nc2cc(N3CCN(C)CC3)nc(Sc3ccc(NC(=O)C4CC4)cc3)n2)n[nH]1` [Tozasertib] + Nc1nc(F)nc2c1ncn2[C@@H]1O[C@H](CO)[C@@H](O)[C@@H]1O [fludarabine] (first compound 0.03 µM, partner dose 1 µM): the cell count was 73% in assay [1], 79.2% in assay [2] and 28.2% in assay [3].

Regarding `CC[C@]1(O)C[C@H]2CN(CCc3c([nH]c4ccccc34)[C@@](C(=O)OC)(c3cc4c(cc3OC)N(C=O)[C@H]3[C@@](O)(C(=O)OC)[C@H](OC(C)=O)[C@]5(CC)C=CCN6CC[C@]43[C@@H]65)C2)C1` [vincristine] + C[C@@H]1CCN(C(=O)CC#N)C[C@@H]1N(C)c1ncnc2[nH]ccc12 [CP690550] (first compound 0.0005 µM, partner dose 5 µM), the cell count in assay [1] was 56.9%; in assay [2], 16.7%; in assay [3] it was 103%.

In the case of `N#CC[C@H](C1CCCC1)n1cc(-c2ncnc3[nH]ccc23)cn1` [ruxolitinib] + OCc1c[nH]c2ccccc12 [Indole-3-carbinol] (first compound 5 µM, partner dose 4 µM), the results for the cell count in assay [1], in assay [2] and in assay [3] were 120%, 71.9% and 127%, respectively.

Regarding `CC[C@]1(O)C[C@H]2CN(CCc3c([nH]c4ccccc34)[C@@](C(=O)OC)(c3cc4c(cc3OC)N(C=O)[C@H]3[C@@](O)(C(=O)OC)[C@H](OC(C)=O)[C@]5(CC)C=CCN6CC[C@]43[C@@H]65)C2)C1` [vincristine] + OCc1c[nH]c2ccccc12 [Indole-3-carbinol] (first compound 0.0005 µM, partner dose 4 µM), the cell count in assay [1] is 71.6%; in assay [2] it was 77.3%; in assay [3], 99%.

`Cc1cc(Nc2cc(N3CCN(C)CC3)nc(Sc3ccc(NC(=O)C4CC4)cc3)n2)n[nH]1` [Tozasertib] + CN(C)S(=O)(=O)c1ccc2c(c1)/C(=C/c1cc3c([nH]1)CCCC3)C(=O)N2 [SU6656] (first compound 0.03 µM, partner dose 2 µM): the figures for the cell count in assay [1], in assay [2] and in assay [3] were 60.4%, 92.9% and 130%, respectively.

In the case of `N#CC[C@H](C1CCCC1)n1cc(-c2ncnc3[nH]ccc23)cn1` [ruxolitinib] + Cn1c(=O)n(-c2ccc(C(C)(C)C#N)cc2)c2c3cc(-c4cnc5ccccc5c4)ccc3ncc21 [NVP-BEZ235] (first compound 5 µM, partner dose 0.02 µM), the cell count in assay [1] is 64.4%; in assay [2] it was 44.2%; in assay [3] it was 106%.

As for `CC[C@]1(O)C[C@H]2CN(CCc3c([nH]c4ccccc34)[C@@](C(=O)OC)(c3cc4c(cc3OC)N(C=O)[C@H]3[C@@](O)(C(=O)OC)[C@H](OC(C)=O)[C@]5(CC)C=CCN6CC[C@]43[C@@H]65)C2)C1` [vincristine] + CCCS(=O)(=O)Nc1ccc(F)c(C(=O)c2c[nH]c3ncc(Cl)cc23)c1F [PLX4720] (first compound 0.0005 µM, partner dose 0.4 µM), the values for the cell count in assay [1], in assay [2] and in assay [3] were 86.2%, 120% and 91.7%, respectively.

Take `Cc1cc(Nc2cc(N3CCN(C)CC3)nc(Sc3ccc(NC(=O)C4CC4)cc3)n2)n[nH]1` [Tozasertib] + CS(=O)(=O)c1ccc(C(=O)Nc2ccc(Cl)c(-c3ccccn3)c2)c(Cl)c1 [vismodegib] (first compound 0.03 µM, partner dose 5 µM): the results for the cell count in assay [1], in assay [2] and in assay [3] were 87.1%, 76.7% and 82.3%, respectively.

On to `Cc1cc(Nc2cc(N3CCN(C)CC3)nc(Sc3ccc(NC(=O)C4CC4)cc3)n2)n[nH]1` [Tozasertib] + CN(NC(=O)CC(=O)NN(C)C(=S)c1ccccc1)C(=S)c1ccccc1 [STA4783] (first compound 0.03 µM, partner dose 0.03 µM), for which the cell count in assay [1] came to 60%; in assay [2], 10.4%; in assay [3] it was 106%.

As for `Cc1cc(Nc2cc(N3CCN(C)CC3)nc(Sc3ccc(NC(=O)C4CC4)cc3)n2)n[nH]1` [Tozasertib] + Nc1cccc2c1CN(C1CCC(=O)NC1=O)C2=O [lenalidomide] (first compound 0.03 µM, partner dose 5 µM), the results for the cell count in assay [1], in assay [2] and in assay [3] were 89.3%, 85.3% and 79.4%, respectively.

Regarding `N#CC[C@H](C1CCCC1)n1cc(-c2ncnc3[nH]ccc23)cn1` [ruxolitinib] + Cn1c(Nc2ccc(C(F)(F)F)cc2)nc2cc(Oc3ccnc(-c4ncc(C(F)(F)F)[nH]4)c3)ccc21 [CHIR265] (first compound 5 µM, partner dose 0.4 µM), the cell count in assay [1] came out at 57.5%; in assay [2] it was 41.7%; in assay [3], 94.2%.

`CC[C@]1(O)C[C@H]2CN(CCc3c([nH]c4ccccc34)[C@@](C(=O)OC)(c3cc4c(cc3OC)N(C=O)[C@H]3[C@@](O)(C(=O)OC)[C@H](OC(C)=O)[C@]5(CC)C=CCN6CC[C@]43[C@@H]65)C2)C1` [vincristine] + Nc1ncn([C@H]2C[C@H](O)[C@@H](CO)O2)c(=O)n1 [decitabine] (first compound 0.0005 µM, partner dose 0.5 µM): the values for the cell count in assay [1], in assay [2] and in assay [3] were 48.6%, 69.6% and 122%, respectively.

Regarding `N#CC[C@H](C1CCCC1)n1cc(-c2ncnc3[nH]ccc23)cn1` [ruxolitinib] + O=C(Nc1cc(C(F)(F)F)cc(C(F)(F)F)c1)c1cc(Cl)ccc1O [IMD0354] (first compound 5 µM, partner dose 0.08 µM), the cell count in assay [1] turned out to be 83%; in assay [2], 76.4%; in assay [3], 116%.

Take `Cc1cc(Nc2cc(N3CCN(C)CC3)nc(Sc3ccc(NC(=O)C4CC4)cc3)n2)n[nH]1` [Tozasertib] + CC(C)CCN1c2nc(Nc3cc(F)c(O)c(F)c3)ncc2N(C)C(=O)C1C [BID1870] (first compound 0.03 µM, partner dose 1 µM): the results for the cell count in assay [1], in assay [2] and in assay [3] were 62.3%, 76% and 104%, respectively.

On to `N#CC[C@H](C1CCCC1)n1cc(-c2ncnc3[nH]ccc23)cn1` [ruxolitinib] + CN(C)S(=O)(=O)c1ccc2c(c1)/C(=C/c1cc3c([nH]1)CCCC3)C(=O)N2 [SU6656] (first compound 5 µM, partner dose 2 µM), for which the cell count in assay [1] is 82.1%; in assay [2], 74.2%; in assay [3], 144%.

For the compound `N#CC[C@H](C1CCCC1)n1cc(-c2ncnc3[nH]ccc23)cn1` [ruxolitinib] + NC(=O)c1ccc(N(C(N)=O)c2c(F)cccc2F)nc1-c1ccc(F)cc1F [VX702] (first compound 5 µM, partner dose 2 µM), the cell count in assay [1] is 120%; in assay [2], 79.3%; in assay [3], 127%.

As for `N#CC[C@H](C1CCCC1)n1cc(-c2ncnc3[nH]ccc23)cn1` [ruxolitinib] + CO[C@H]1C[C@@H]2CC[C@@H](C)[C@@](O)(O2)C(=O)C(=O)N2CCCC[C@H]2C(=O)O[C@H]([C@H](C)C[C@@H]2CC[C@@H](OCCO)[C@H](OC)C2)CC(=O)[C@H](C)/C=C(\C)[C@@H](O)[C@@H](OC)C(=O)[C@H](C)C[C@H](C)/C=C/C=C/C=C/1C [everolimus] (first compound 5 µM, partner dose 0.1 µM), the cell count in assay [1] stood at 90.7%; in assay [2] it was 56.3%; in assay [3], 91.5%.

The record behind these values is the supplement of paper PMC4604168 (melanoma cell lines).
